Data: PubChem BioAssay AID588855 (National Center for Advancing Translational Sciences (NCATS), 2011)
Screen size: about 410,000 compounds; about 5,000 (1.2%) were called active. Inconclusive means that the source gave no clear call. Such entries were picked first, then a sample of the others. The call rests on the fitted dose curve; in most records, active means well fitted inhibition curve with a large enough effect; inconclusive means small, poorly fitted or top-dose-only effect; inactive means no such curve, though single readings can be large or run the other way. Potencies beside an inconclusive call are fits to weak or partial responses and may not hold up.

Assay: qHTS for Inhibitors of TGF-b; further: nearly all actives have a fitted effect of over 65% in size
Details: HepG2 CAGA-GFP TGF-b/SMAD3 reporter, GFP fluorescence, 18 h, TGF-beta stimulated, 500 pg/mL final; series mostly up to 46.1 µM
Method in brief: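 Inhibition was scored as loss of TGF-beta-induced (500 pg/mL final, 18 hours, 37 degrees C) GFP in HEPG2 cells carrying a CAGA-GFP reporter, in DMEM with 1% FBS. Well GFP was summed per cell; Activity was normalised to unstimulated and stimulated DMSO wells, then concentration-response fitting.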
Potency means the concentration at half of the fitted maximal effect; tags describe the fitted curve by direction and shape.

| Structure (SMILES) | Potency |
| --- | --- |
| CC1CCN(C(=O)Cn2c3ccc(F)cc3c3nc4n(c(=O)c32)CCCS4)CC1 | inconclusive: 6.31 µM [inhibitor, full curve] |
| CC(C)c1ccc2oc(=O)cc(CN3CCN(c4ccccc4)CC3)c2c1 | inconclusive: 6.31 µM [inhibitor, single point] |
| Cc1ccc(Cn2nc(C)c(NC(=O)c3cc(-c4ccco4)on3)c2C)cc1 | inactive |
| CCOC(=O)c1c(-c2ccccc2)oc2ccc(NS(=O)(=O)c3ccc(C(C)C)cc3)cc12 | inconclusive: 25.1 µM [inhibitor, single point] |
| O=C(Cn1cnc2c(NCc3ccccc3)ncnc21)NCCN1CCOCC1 | inconclusive: 0.501 µM [inhibitor, partial curve, poor fit] |
| OCCN1CCN(c2ncnc3c2ncn3[C@H]2CN(Cc3cccs3)C[C@@H](CO)O2)CC1 | inactive |
| CCCc1ccc(-c2cc(C(=O)N3CCN(c4ccccn4)CC3)c3ccccc3n2)cc1 | inconclusive: 10 µM [inhibitor, partial curve] |
| COc1ccc(OC)c(NC(=S)N2CCN(C/C=C/c3ccccc3)CC2)c1 | inactive |
| Cc1cccc(OCC(=O)Nc2ccc3nc(Nc4cccc(Cl)c4)cc(C)c3c2)c1 | inconclusive: 35.5 µM [inhibitor, single point] |
| O=C(Nc1ccccc1)Nc1cc(S(=O)(=O)N2CCOCC2)ccc1N1CCCC1 | inconclusive: 3.55 µM [inhibitor, single point] |
| O=C1/C(=C/c2cccs2)SC(=S)N1CC(=O)N1CCCCC1CCO (stereo unspecified) | inconclusive: 20 µM [inhibitor, single point] |
| COc1ccc(CCC(=O)NCc2ccc3c(c2)CCN3C(=O)c2ccc(C)cc2)cc1 | inactive |
| O=C(NCC(=O)N1CCN(Cc2ccccc2)CC1)c1ccc(Br)o1 | inactive |
| COc1cccc(-c2nc(SCC(=O)N3CCc4ccccc43)c3c(=O)n(C)c(=O)n(C)c3n2)c1 | inactive |
| O=S(=O)(NCc1ccccc1)c1ccccc1NCc1ccc(Cl)cc1 | inconclusive: 15.8 µM [inhibitor, partial curve, poor fit] |
| Cc1cccnc1C(NC(=O)C1CCN(Cc2ccc(Cl)cc2)CC1)c1ccccc1 (stereo unspecified) | inactive |
| CCn1nnc(NC(=O)c2ccc([N+](=O)[O-])o2)n1 | inconclusive: 20 µM [inhibitor, partial curve, poor fit] |
| O=S(=O)(c1cnccc1N1CCN(/N=C/c2ccc(Cl)cc2)CC1)N1CCCCC1 | inconclusive: 10 µM [inhibitor, partial curve, poor fit] |
| Fc1ccc(NC(=S)NC2CC3CCCC(C2)N3Cc2cccs2)cc1 (stereo unspecified) | inactive |
| COCC1CCCN(C(=O)c2cc(COc3ccc4ncccc4c3)on2)C1 (stereo unspecified) | inconclusive: 4.47 µM [inhibitor, partial curve] |
| CCc1ccc(NC2=CC(=O)CC(C)(C)C2)cc1 | inactive |
| CCOc1cc(C(=O)Nc2ccc(S(=O)(=O)NC3=NCCCCC3)cc2)cc(OCC)c1OCC | inactive |
| COc1ccc(Nc2nc(N)nc(CSC(=S)N3CCCCC3)n2)cc1 | inactive |
| NC(=O)C1CCN(c2nc(-c3ccccc3C(F)(F)F)cs2)CC1 | inactive |

| Structure (SMILES) | Potency |
| --- | --- |
| COc1ccc(CCNc2nc(=S)[nH]c3cc(OC)c(OC)cc23)cc1OC | inactive |
| O=S(=O)(c1ccccc1)N1CCc2ccccc21 | inactive |
| Cc1cccc(C)c1OCC(=O)N[C@@H](Cc1ccccc1)[C@@H](O)C[C@H](Cc1ccccc1)NC(=O)[C@H](C(C)C)N1CCCNC1=O | active: 12.6 µM |
| C/C(N)=C(/C#N)C(=O)COC(=O)C1CCN(S(=O)(=O)c2cccs2)CC1 | inactive |
| CCc1nc2ccc(C(=O)N3CCN(S(=O)(=O)CC)CC3)cn2c1N(C)CCC(C)C | inactive |
| NC(=O)SCC(=O)Nc1ccc(Cl)c(Cl)c1 | active: 12.6 µM |
| CCN(CC)C(=O)c1ccc(COc2ccccc2Cl)cc1 | inactive |
| CC(C)(C)C(=O)NNC(=O)c1cnccn1 | inactive |
| O=C(c1ccc(COc2ccccc2Cl)o1)N1N=C(C(F)F)CC1(O)C(F)F (stereo unspecified) | inconclusive: 35.5 µM [inhibitor, single point] |
| N#Cc1cccc(NC(=O)c2ccc3c(c2)N(Cc2cccc(Cl)c2)C(=O)c2ccccc2S3(=O)=O)c1 | inconclusive: 0.562 µM [inhibitor, full curve] |
| O=C(CNCc1ccc(Cl)cc1)Nc1ccc(C(=O)N2CCCCCC2)cc1 | inconclusive: 22.4 µM [inhibitor, single point] |
| O=C(c1ccc(F)cc1F)N1CCC(c2noc(-c3ccc(S(=O)(=O)N4CCCC4)cc3)n2)CC1 | inactive |
| Cc1cc(-c2ccc(C)c(S(=O)(=O)NCc3ccc(Br)cc3)c2)on1 | inconclusive: 22.4 µM [inhibitor, single point] |
| O=C(CSCc1ccc([N+](=O)[O-])cc1)Nc1ccccc1C(=O)O | inconclusive: 28.2 µM [inhibitor, partial curve, poor fit] |
| O=C(c1ccc(S(=O)(=O)Nc2ccccc2)cc1)N1CCCC(C(F)(F)F)C1 (stereo unspecified) | inactive |
| Cc1c(NC(=O)/C=C/c2cccs2)c(=O)n(-c2ccccc2)n1C | inconclusive: 35.5 µM [inhibitor, single point] |
| CC(C)(C)c1ccc(-c2nnc(SCCC#N)n2C2CCCC2)cc1 | inconclusive: 14.1 µM [inhibitor, partial curve, poor fit] |
| Clc1ccc(CN2CCC(c3nc4ccc(Cl)cc4[nH]3)CC2)cc1 | inconclusive: 15.8 µM [inhibitor, single point] |
| N#C/C(=C/c1ccc(Sc2nc3ccccc3[nH]2)o1)c1cccc(F)c1 | inconclusive: 28.2 µM [inhibitor, single point] |
| COc1cc(CN(C(=S)NCC(=O)N2CCCC2)C2CCCC2)cc(OC)c1OC | inconclusive: 20 µM [inhibitor, single point] |
| COc1ccc(N(CC(=O)NCCSC2CCCCC2)S(C)(=O)=O)c(OC)c1 | inactive |
| CC1CCCC(NC(=S)Nc2ccc(SC(F)F)cc2)C1C (stereo unspecified) | inconclusive: 35.5 µM [inhibitor, single point] |
| CCOc1ccc(CNC(=O)C2Cc3cc(S(=O)(=O)N4CCCCCC4)ccc3N2C(C)=O)cc1 (stereo unspecified) | inactive |
| COc1cc(/C=C2/C(=O)c3cccc([N+](=O)[O-])c3C2=O)c(Br)cc1O | inconclusive: 22.4 µM [inhibitor, single point] |

| Structure (SMILES) | Potency |
| --- | --- |
| CC(C)(C)NCC(O)COc1ccccc1C(=O)CCc1ccccc1 (stereo unspecified) | inconclusive: 22.4 µM [inhibitor, single point] |
| O=C(Nc1ccccc1C(F)(F)F)N1CCN(c2ccc3nnc(-c4ccc(F)cc4)n3n2)CC1 | inconclusive: 35.5 µM [inhibitor, partial curve, poor fit] |
| N#Cc1c(NC(=O)CSc2n[nH]c(Cc3ccccc3)n2)oc(-c2ccccc2)c1-c1ccccc1 | inconclusive: 35.5 µM [inhibitor, single point] |
| CC(=O)c1ccc(NC(=O)Nc2ncn(Cc3cccc(C)c3)n2)cc1 | inactive |
| CN(C)S(=O)(=O)c1cccc(-c2nn(-c3ccccc3)cc2/C=C2\SC(=S)NC2=O)c1 | active: 12.6 µM |
| NS(=O)(=O)c1cccc(NC(=O)c2cccc(Oc3ccccc3)c2)c1 | inconclusive: 12.6 µM [inhibitor, partial curve] |
| CCCN(CCC)CC(O)Cn1cc(/C=C/C(=O)c2ccc(OCC)cc2)c2ccccc21 (stereo unspecified) | inconclusive: 35.5 µM [inhibitor, single point] |
| CSc1ccc(CCNC(=O)CN2C(=O)CCSc3ccccc32)cc1 | inactive |
| Cc1[nH]c2ccc(C(=O)N3CCN(c4cccc(Cl)c4)CC3)cc2c1C | inconclusive: 35.5 µM [inhibitor, single point] |
| Cn1ncc2c(Nc3ccc(Br)cc3)nc(Nc3ccc(Br)cc3)nc21 | active: 11.2 µM |
| CCN(CC)CCOC(c1ccccc1)c1ccc(C)cc1 (stereo unspecified) | inactive |
| COc1ccc(-c2noc(CCC(=O)NCc3ccc(OC)cc3OC)n2)cc1 | inconclusive: 28.2 µM [inhibitor, single point] |
| N#CC1(c2ccccc2)CCC(=NO)CC1 (stereo unspecified) | inactive |
| Nc1ccccc1-n1nc2ccc3ccccc3c2n1 | inactive |
| C(=N/n1c2ccccc2c2ccccc21)/c1ccco1 | inconclusive: 4.47 µM [inhibitor, full curve, poor fit] |
| NCCCC[C@H]1CNC(=S)N1CCCCC1CCCCC1 | inconclusive: 3.55 µM [inhibitor, single point] |
| CC(C)c1nn2c(=O)cc(COC(=O)CNC(=O)c3ccccc3)nc2s1 | inconclusive: 0.112 µM [inhibitor, full curve, poor fit] |
| COc1ccc(C2CC(c3cccs3)=NN2c2ccccc2)cc1 (stereo unspecified) | inconclusive: 3.55 µM [inhibitor, partial curve, poor fit] |
| CCOC(=O)CSc1nc(NC#N)nc(N(CC)CC)n1 | inconclusive: 6.31 µM [inhibitor, single point] |
| O=[N+]([O-])c1ccc(S(=O)(=O)Nc2ccc(-c3ccccc3)cc2)cc1 | inconclusive: 11.2 µM [inhibitor, partial curve, poor fit] |
| COc1ccc(N2CCN(C(=O)CCS(=O)(=O)c3ccc(C)cc3)CC2)cc1 | inactive |
| Cc1ccc(S(=O)(=O)CCC(=O)Nc2nnc(-c3cccs3)o2)cc1 | inconclusive: 22.4 µM [inhibitor, partial curve] |
| O=C(N/N=C/c1cc([N+](=O)[O-])ccc1O)c1cccc2cc[nH]c12 | active: 12.6 µM |
